About 540 (0.36%) of roughly 150,000 compounds showed an effect of 50% or more. Some of the results follow.
tested on: Plasmodium falciparum; experiment: Primary screen in NF54 nanoGlo assay, in single point, at 2uM, 72h; a lower Z score goes with more inhibition; assay type: functional, Erythrocyte; settings: timepoint 72 hour

SMILES | % Inhibition [%] | Z score
COc1nc(-c2cccc(C(=O)N(CCO)Cc3nccn3C)c2)nn1C | -13 | 1.24
O=C(NCc1cc[nH]n1)NCC1(N2CCOCC2)CCCCC1 | 2 | -0.22
CCn1ccc(C(=O)N2CC(n3ccnc3C)C2)n1 | 0 | 0.09
CCNc1nc(C)c(C(=O)N[C@@H](C)c2nnc(C(C)C)o2)s1 | -6 | 0.95
Cc1ccc(-n2nc3c(N4CCC(C(=O)NC5CCCC5)CC4)nnc(C)c3c2C)cc1 | 12 | -1.38
CC1CCN(c2nnc(C(=O)NCc3cccc(C(F)(F)F)c3)c3ccccc23)CC1 | -11 | 1.02
C[C@@H](CN1CCN(c2ccccn2)CC1)NC(=O)CCc1ccco1 | -10 | 0.88
c1nc(-c2ccc(N3CCC(N[C@H]4CCCOC4)CC3)cc2)cs1 | 13 | -1.69
CC(C)CCc1noc(CN(CC#N)S(=O)(=O)N(C)C)n1 | -5 | 0.57
Cc1oc2ncn(Cc3ccc(F)cc3)c(=O)c2c1C(=O)O | -11 | 1.48
O=C(Cc1csc(-c2ncccn2)n1)Nc1ccc2c(c1)CCC2 | -37 | 4.3
Cc1ccc(CN(CCN2CCOCC2)C[C@H](O)COCc2ccccc2)c(C)c1 | -10 | 1.21
COC[C@H](NC(=O)Nc1cccnn1)c1ccc(Cl)cc1 | 1 | -0.22
Cn1cc(C#N)cc1C(=O)N[C@H](c1cccnc1)C(F)(F)F | -1 | 0.09
Cc1cccc(-c2ncc(C(=O)N3CC(O)C3)c(O)n2)c1 | 1 | -0.11
NC(=O)N1CCOc2ccc(F)cc2C1 | -7 | 0.56
Cc1cnccc1CN(C)C(=O)[C@H]1CCS(=O)(=O)C1 | -3 | 0.58
CC(C)c1noc(CN(C)[C@@H](C)C(=O)NCc2ccccc2)n1 | 6 | -1.1
Cn1ccc(NC(=O)C(=O)N2CCC[C@H]2c2cccc(F)c2)n1 | -13 | 1.74
COc1ccc(CN2C(=O)c3cc(-c4ccc(OC)cc4)nn3C[C@@]2(C)C(=O)NCc2ccccc2)cc1 | 6 | -0.96
Cc1ccccc1C1(C(=O)NC2CCN(CCS(C)(=O)=O)CC2)CCCC1 | 5 | -0.69
Cc1c(C#N)c(NC(=O)C[C@H](n2cccn2)C(F)(F)F)nn1C | 10 | -1.36

SMILES | % Inhibition [%] | Z score
COc1ccc2c(c1)c(CN1C[C@@H](CO)[C@H](NC(C)=O)C1)cn2C(C)C | -5 | 0.98
CN(CC(C)(C)S(C)(=O)=O)c1nnc(C(F)(F)F)s1 | -5 | 0.51
CCOC(=O)c1ncn(C2CCN(C(=O)Nc3ccc(N(C)C(C)C)c(F)c3)CC2)c1N | -2 | 0.18
CCc1noc(COCC(=O)N2CCC[C@]2(C)Cc2cc(Cl)cs2)n1 | -2 | 0.3
COC[C@@H](c1ccccn1)N(C)Cc1noc(C2CCCC2)n1 | -11 | 1.46
CC1(C)OCC2CC21NC(=O)Nc1cnn(-c2ncccc2C#N)c1 (stereo not given) | 6 | -0.77
CCCO/C(=N/C(=O)c1ccc2c(c1)OCO2)NCCCc1ccccc1 | -13 | 1.9
CN(Cc1cc(C(F)(F)F)n[nH]1)C1CCOCC1 | 4 | -0.56
CCn1cc(-c2ccccc2)cc1C(=O)N1CCCC1 | 5 | -0.82
CNC(=O)Cc1ccccc1NC(=O)N[C@H]1CCCN(C(=O)OC)C1 | -5 | 0.61
N#Cc1c(F)cccc1NCc1nccs1 | -11 | 1.19
CCc1nc(C)c(C(=O)NC(C)C2CC3CCC2C3)s1 (stereo not given) | -5 | 0.59
N#Cc1c(N)nc2c(c1-c1cccn1-c1ccccn1)C[C@@H](N)CC2 | -7 | 1.19
C[C@@H](c1nccs1)N1CCN(S(=O)(=O)c2cnnn2C)CC1 | 8 | -1.48
OC[C@H](Cc1c[nH]c2ccccc12)Nc1ncc(Br)cn1 | 2 | -0.33
CC(C)c1cc(C(=O)N2CCN(c3ccccn3)CC2)c2ccccc2n1 | -1 | 0.16
O=C(Nc1ccc(CC(=O)N2CCOCC2)cc1)[C@@H]1CC=CCC1 | 0 | 0.04
CC(C)c1cc(C(=O)Nc2cc(C(=O)O)cs2)no1 | 34 | -3.81
Cc1nc(C(=O)N2CCC(n3cc(CN4CCCC4)nn3)CC2)c[nH]1 | -16 | 2.1
CCCN(CCC)C(=O)C[C@H](c1ccc(F)cc1)c1cn(Cc2ccc(F)cc2)c2ccccc12 | 0 | 0.02
Cc1nnnn1Cc1nc(-c2ccncc2)nn1C1CCCCC1 | -25 | 2.24
CC1(C)C[C@@H](C(=O)N2CCC(n3cc(-c4ccccn4)nn3)CC2)CCO1 | -2 | 0.25

SMILES | % Inhibition [%] | Z score
O=C(c1cc(-n2cnnn2)[nH]n1)N1CCN(C2CCCCC2)CC1 | -7 | 1.31
O=C(NC1CC1)[C@@H]1CCCN1c1ncccc1Cl | -10 | 0.87
COCc1nc(CCNC(=O)c2cccs2)no1 | -3 | 0.44
CCN(CC(=O)NCCC#N)Cc1cccc(F)c1 | -14 | 1.46
CC[C@H](C)NC(=O)CN1CCN(C(=O)c2scnc2C2CCCC2)CC1 | 6 | -0.79
CCn1cc(CN(C)C(=O)CCn2cnnn2)cn1 | -9 | 1.36
Cc1nn(-c2nc3ccccc3[nH]2)c2c1[C@@H](c1c(C)sc3ccccc13)CC(=O)N2 | 4 | -0.46
COc1ccc(CN(C(=O)c2cc[nH]n2)[C@@H](C)C2CC2)c(OC)c1 | 20 | -2.17
O=S(=O)(NCC[C@H](O)c1cccs1)c1cccs1 | -3 | 0.4
COC(=O)[C@H](Cc1ccc(OC)cc1)NC(=O)[C@H]1CN(C(=O)c2ccc(N(C)C)cc2)CCN1C(=O)NC1CCCCC1 | 17 | -1.97
Cc1ncsc1S(=O)(=O)N1CCOCC1 | -15 | 1.65
Cc1ccc(CNC(=O)c2nn(C(C)C)c3c2COCC3)o1 | -9 | 1.09
CC(C)(C)n1c(=O)c2ccc(Cl)cc2n1CC(=O)Nc1ccc(Cl)cc1F | 7 | -1.11
COc1ccccc1S(=O)(=O)N1CCO[C@H](c2noc(C(C)C)n2)C1 | -15 | 1.59
O=C(Cn1ncn2nc(-c3ccccc3)cc2c1=O)N1CCC(Cc2ccccc2)CC1 | -9 | 0.76
O=S(=O)(NCc1cc(-c2ccccc2Cl)no1)c1ccccc1 | -1 | 0.11
Cc1ccccc1N(C(=O)C[C@H](C)N1CCCCC1=O)C(C)C | 2 | -0.4
COc1c(F)cc(NC(=O)[C@H]2CNCCO2)cc1F | 0 | 0.02
O=C(C=Cc1cscn1)NOCc1ccccc1 | -1 | 0.13
CN1CCN([C@H]2CN(c3ncccc3C#N)C[C@@H]2O)CC1 | 1 | -0.15
CCCC(CCC)C(=O)Nc1ccc(NC(C)=O)cc1 | -4 | 0.84
CN(Cc1ccccc1)C(=O)CCC1CCN(c2ccc3ccccc3n2)CC1 | -10 | 1.44

SMILES | % Inhibition [%] | Z score
CS(=O)(=O)N1CCN(C(=O)[C@]2(c3ccccc3)CC23CCCC3)CC1 | -6 | 0.56
Cc1ccn2c(CN(C)CCc3ccncc3)cnc2c1 | -5 | 0.55
c1cn(CCCn2nccc2C2CC2)c(-c2cc3n(n2)CCCNC3)n1 | -12 | 1.58
Cc1ccc(S(=O)(=O)N(C)c2cccc(C(=O)N(C)C3CCCCC3O)c2)cc1 (stereo not given) | -7 | 0.97
CCN1CCC[C@H](NS(=O)(=O)c2cnn(CC)c2)C1 | -1 | 0.13
Cc1nc(C)c(CC(=O)Nc2ccc(C)c(Cl)c2)c(=O)[nH]1 | -6 | 1.23
Cc1cc(C)cc(C(=O)N2CCCN(c3nc4c(s3)c(C)nn4-c3ccc(F)cc3)CC2)c1 | -7 | 1.22
O=C(Nc1cnoc1)c1ccc(Oc2ccccc2)cc1 | -14 | 2.12
O=C(Nc1ccn2ccnc2c1)NC1CC2CC2C1 (stereo not given) | 3 | -0.56
Cc1cc(=O)c(C(=O)N2CCN(C)CC2)c(CCc2ccccc2)n1Cc1ccncc1 | -6 | 0.68
CCC=CCCn1cnc2[nH]ccc2c1=O | 6 | -1.14
COc1cc(C(=O)NC[C@H]2CCCN(CC(C)C)C2)ncn1 | 1 | -0.16
CCN(CC)CCN(CC(C)C)S(=O)(=O)c1ccccc1OC | -13 | 1.89
Cc1c(CN2CCC3(CC2)C(=O)NCCCN3C)[nH]c2ccc(F)cc12 | -12 | 1.88
CC(C)n1c(=O)c2sc(N3CCCCC3)nc2n(CC(=O)Nc2ccccc2)c1=O | -7 | 0.64
CC(C)N(CC(N)=O)C(=O)C1C(C)C1(F)F (stereo not given) | -2 | 0.16
Cc1ncsc1CN(C[C@H](O)c1ccccc1)C1CC1 | 5 | -0.6
O=C(CN1CC(=O)Nc2ccccc21)Nc1ccc(F)c(F)c1 | -34 | 4
COc1cc(NC(=O)c2cnn(-c3c(C)cccc3C)c2C2CCN(C(=O)OC(C)(C)C)CC2)cc(OC)c1 | -3 | 0.32

From ChEMBL document CHEMBL4888484, “Replenishing the malaria drug discovery pipeline: Screening and hit evaluation of the MMV Hit Generation Library 1 (HGL1) against asexual blood stage Plasmodium falciparum ,using a nano luciferase reporter read-out” (2022)
